Measured values as given in the RNAGym collection of RNA variant scans (doi:10.1073/pnas.2313332121).
This sample is rich in variants without activity.

B1: TPR 5TU (parent)
chain: GGAUCUUCUCGAUCUAACAAAAAAGACAAAUCUGCCACAAAGCUUGAGAGCAUCUUCGGAUGCAGAGGCGGCAGCCUUCGGUGGCGCGAUAGCGCCAACGUUCUCAACUAUGACACGCAAAACGCGUGCUCCGUUGAAUGGAGUUUAUCAUG

Variants of: B1
Test: polymerase ribozyme fitness, log enrichment relative to wild type (log ratio); higher = more active; in vitro selection for triplet polymerase activity
Summary of the method: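 Mutant libraries of each subunit of a heterodimeric triplet polymerase ribozyme were built by PCR and transcribed. Each library went through one round of in vitro selection in triplicate: annealing with biotinylated primer, partner subunit and triplets, frozen incubation at −7 °C, gel excision of extended constructs, streptavidin-bead capture and RT-PCR. Input and output libraries were Illumina-sequenced; only genotypes with ≥10 input reads and ≥1 read per output were kept. Fitness is log2(genotype enrichment/wild-type enrichment), using inverse-variance-weighted replicate averages.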

| Variant | polymerase ribozyme fitness (log ratio) |
| --- | --- |
| C85U G92A G143C | ≤ -4.2 |
| C87A C93G G143C U146G | ≤ -4.2 |
| G86U C96U C125U A142C | ≤ -4.2 |
| A89U A107U G133A A142G | ≤ -4.2 |
| C85G C99U C129G | ≤ -4.2 |
| C85U A89U A106G C125G | -1.15 |
| G88C A147C | ≤ -4.2 |
| C87A C93G C96U A107U A137G | ≤ -4.2 |
| C87A C103A C114U | ≤ -4.2 |
| C85U G86U A91C G124A G141A U148A | ≤ -4.2 |
| G88U C114A | ≤ -4.2 |
| U90A C99U U111C | -4.13 |
| U90C C96U | -3.69 |
| C85U U127G | -3.46 |
| C85G C114A A150C | ≤ -4.2 |
| C87G U135C | ≤ -4.2 |
| C85U G88C U148G | ≤ -4.2 |
| C85U C103G C108U A115U G143A | ≤ -4.2 |
| C85U C103G | -3.48 |
| G88C A106G G126U G136C | ≤ -4.2 |
| U90A G143A | ≤ -4.2 |

| Variant | polymerase ribozyme fitness (log ratio) |
| --- | --- |
| G88C C123G U146A | ≤ -4.2 |
| C85G U139A | -4.19 |
| C87G C114G A137G | ≤ -4.2 |
| C85U A147G | -1.25 |
| C85U A122G G140U U144G | ≤ -4.2 |
| G88U A120G | ≤ -4.2 |
| C85U U101G C125U C129A | ≤ -4.2 |
| C85U C93A U144A | ≤ -4.2 |
| U90A G92C C125A | ≤ -4.2 |
| G88C G124U G136A | ≤ -4.2 |
| A89G U139G | -0.875 |
| C85U C95A G136U A138C | ≤ -4.2 |
| G86C A89U | -2.94 |
| A89C U90A A107C U144G | ≤ -4.2 |
| C87G G143A | ≤ -4.2 |
| U90G G128A U144G | ≤ -4.2 |
| C85U C93A A98G A106U G112A A137U | ≤ -4.2 |
| G88U G126A | -2.98 |
| C87A C114G | ≤ -4.2 |
| C87A C114U | ≤ -4.2 |
| U90C G94U | -3.46 |

| Variant | polymerase ribozyme fitness (log ratio) |
| --- | --- |
| C85G A122G C131A C132A | ≤ -4.2 |
| C87A C99U G136C G141A U146G | ≤ -4.2 |
| G86A U101G A107G A121C G126C | ≤ -4.2 |
| C85U G126A A142G | -0.307 |
| C87G A107G | ≤ -4.2 |
| C87U C116G G152U | -3.11 |
| C87A A106U C129G G136A | ≤ -4.2 |
| C85G A137C | ≤ -4.2 |
| G88U C95U A121U A122G G124A | ≤ -4.2 |
| C87A U135A | ≤ -4.2 |
| C87A A113U | ≤ -4.2 |
| C87A C99G U104G U135G | ≤ -4.2 |
| C87U G100U C105G | ≤ -4.2 |
| C87A A113U A119G | ≤ -4.2 |
| C85U A98G A113U U135C | -3.59 |
| G88U G94U C118U | ≤ -4.2 |
| C87A C93G C132A C149G | ≤ -4.2 |
| U90A C103G A110G | ≤ -4.2 |
| G86U A119G A150C | ≤ -4.2 |
| G86U G92U C114A | ≤ -4.2 |
| G86A U90C U102C A137G | ≤ -4.2 |

| Variant | polymerase ribozyme fitness (log ratio) |
| --- | --- |
| C87G C99A A137C | ≤ -4.2 |
| C85G G128A A138U | ≤ -4.2 |
| A89C C103A U130C C132A | ≤ -4.2 |
| C85G G126U U134C A137U A147U G152U | ≤ -4.2 |
| A89C C93A U134A G141C | ≤ -4.2 |
| G86C U111G C116G | ≤ -4.2 |
| A89U C93G C99U G143A | ≤ -4.2 |
| G88C G141C | -3.84 |
| C85U U102G | -3.32 |
| A89U A97U U101A A107C A121C G140U U148G | ≤ -4.2 |
| C85U G88U U104G G124A A150G | ≤ -4.2 |
| U90G A91G A142G | ≤ -4.2 |
| G88U G100C U127G | ≤ -4.2 |
| C87G A97U G124A | ≤ -4.2 |
| C85U G112A C114U | ≤ -4.2 |
| U90C A138G G143U | ≤ -4.2 |
| C87U U90C C116A A138U | ≤ -4.2 |
| C85U A97U C99G C114A | ≤ -4.2 |
| A89C A107C C114U | ≤ -4.2 |
| G86U A107U G141U | ≤ -4.2 |
| C87G C93U C99A U134G G141U | ≤ -4.2 |
